Results reported in PubChem BioAssay (NCI).
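Tested at 5 concentrations; 48 h exposure; 96-well plates; endpoints linearly interpolated, else capped at highest concentration. Abbreviation: GI50, concentration required for 50% inhibition of growth.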 For part of its entries the source gives two or more results. They are shown here; other results are not. There may be further records. For part of these data: The tests behind the records often covered other concentration ranges, which the source does not state; some values may only mark the edge of a range.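 The concentration for full growth arrest is given as TGI.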 For part of these data: Values given together are repeats in other runs, samples, wells, individuals or studies. What stands in brackets tells the records apart. Letters count within one entry.

Test system: MDA-MB-468 breast
Assay: growth of human tumour cells (NCI), 48 h

Row | Compound | TGI | GI50
1 | CNC(=O)CN1CCC(Oc2cc3c(Nc4cccc(Cl)c4F)ncnc3cc2OC)CC1 | 37.7 nM [sample A, mean of 2 tests] and 583 nM [sample B, mean of 2 tests] | –
2 | C/C=C/C1=CN2C(=O)c3cc(OC4OC(C)C(NC)C(C)(O)C4O)c(C)c(O)c3N=C[C@@H]2C1 (stereo partly drawn) | 293 nM and < 10 nM | 114 nM and < 10 nM
